Laboratory results: PubChem BioAssay AID504832 (National Center for Advancing Translational Sciences (NCATS), 2011)
Out of some 310,000 compounds screened, about 18,000 (5.8%) were called active. This list was built around the results that the source calls inconclusive (neither active nor inactive); the mix of calls is not that of the screen. Calls follow the shape of the dose curve; as a rule, active = well fitted inhibition curve with a large enough effect; inconclusive = small, poorly fitted or top-dose-only effect, or another doubt; inactive = no such curve, though single readings can be large or run the other way. No potency is given beside an inconclusive call; the fits are too rough. More than one record can exist for a structure, and the calls need not agree.

Assay: Primary qHTS for delayed death inhibitors of the malarial parasite plastid, 48 hour incubation
Details: P. falciparum luciferase growth in erythrocytes; series mostly up to 28.7 µM
Procedure, shortened: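 Compounds are pin-transferred into medium, infected erythrocytes (2% hematocrit, 0.1% parasitemia final) are added, and plates sit one parasite generation at 37 C in 5% CO2. Detection reagent is then added and luminescence measured.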
% is scaled to controls: 0 for no effect and ±100 for the full control effect; potency is read from the fitted curve at half-maximal effect; tags tell the direction and shape of the fitted curve.

Row | Compound | Potency | activity change, negative = inhibition
1 | Cc1nc2ccc(-c3nc4cc(N)ccc4o3)cc2[nH]1 | inconclusive [inhibitor, single point] | –
2 | COc1ccc(NC(=O)CSCC(=O)NCCc2ccccn2)cc1 | inactive | –
3 | COc1ccc(CCN2CC(C(=O)Nc3ccc(S(C)(=O)=O)cc3)CC2=O)cc1OC (stereo not given) | inactive | –
4 | O=C(NCc1ccccn1)C(C(=O)c1cccc([N+](=O)[O-])c1)n1cc(Cl)ccc1=O (stereo not given) | inactive | –
5 | COc1ccc(/C=C/c2ccc3ccccc3[n+]2C)cc1OC | active: 1.17 µM | –
6 | Cc1csc2nc(COC(=O)c3ccc(Cl)c([N+](=O)[O-])c3)cc(=O)n12 | inactive | –
7 | O=C(CCNS(=O)(=O)c1cccs1)NCc1ccco1 | inactive | –
8 | COc1ccc(-c2cncnc2-c2ccc(OC)cc2O)cc1 | inconclusive [inhibitor, single point] | –
9 | CN(C)N=Nc1ccc(-c2cn(Cc3ccccc3)cn2)cc1 | inconclusive [inhibitor, single point] | –
10 | COc1cc(/C=C/C(=O)OCC(=O)NC(=O)NC2CCCCC2C)ccc1OC(F)F (stereo not given) | inconclusive [inhibitor, single point] | –
11 | C=C(C)COc1ccc(-c2nc(N)ncc2Oc2ccccc2OC)c(O)c1 | inconclusive [inhibitor, single point] | –
12 | Fc1ccc(C(c2nnnn2C2CCCC2)N2CCc3ccccc32)cc1 (stereo not given) | inconclusive [inhibitor, partial curve, poor fit] | –
13 | COC(=O)c1[nH]c2ccc(C)cc2c1NC(=O)CCN1CCN(Cc2ccc3c(c2)OCO3)CC1 | inconclusive [inhibitor, partial curve, poor fit] | –
14 | CC(C)CNS(=O)(=O)c1ccccc1C(=O)N1CCCCC1 | inactive | –
15 | O=C(CCC1CCCN(C(=O)c2ccc3c(c2)OCO3)C1)N1CCN(c2ccccn2)CC1 (stereo not given) | inconclusive [inhibitor, partial curve, poor fit] | –
16 | O=c1[nH]c(C2CCN(S(=O)(=O)c3ccc(C(F)(F)F)cc3)CC2)nc2c1nnn2Cc1cccc(F)c1 | inconclusive [inhibitor, partial curve] | –
17 | Cc1onc(-c2ccccc2Cl)c1C(=O)OCn1nnc2ccccc2c1=O | inactive | –
18 | CC1CCCCN1CCCNC(=O)CN1C(=O)c2cccnc2Oc2ccc(Cl)cc21 (stereo not given) | inconclusive [inhibitor, partial curve, poor fit] | –
19 | COc1cc(C2C3=C(CC(c4ccco4)CC3=O)Nc3ccccc3N2C(C)=O)cc(OC)c1OC (stereo not given) | inactive | –
20 | Cc1ccc2cc3cc(C(=O)N4CCCCC4C)oc3nc2c1 (stereo not given) | active: 9.28 µM | –
21 | COc1ccc(S(=O)(=O)N2CCCCCC2)cc1C(=O)N(C)CCOc1ccccc1 | inconclusive [inhibitor, single point] | –
22 | CCCS(=O)(=O)c1c(S(=O)(=O)CCC)c2cnccn2c1C(=O)c1ccc(OC)cc1 | active: 10.4 µM | –
23 | CCc1nnc(NS(=O)(=O)c2ccc(NC(=O)c3cc4ccccc4oc3=O)cc2)s1 | inactive | –
24 | CCOc1ccc(NC(=O)Cn2c(=O)oc3cc(Cl)ccc32)cc1 | inconclusive [inhibitor, single point] | –

Row | Compound | Potency | activity change, negative = inhibition
25 | O=S(=O)(c1cccs1)N1CCC(CO)(Cc2cccc(F)c2)CC1 | inconclusive [inhibitor, single point] | –
26 | COC(=O)c1ccc(CSc2nnnn2-c2ccc(C)cc2C)o1 | inconclusive [inhibitor, single point] | –
27 | O=C(CSc1nnc(C2CC2)n1Cc1ccccc1)N1CCN(S(=O)(=O)c2ccccc2)CC1 | inconclusive [inhibitor, partial curve] | –
28 | CCOc1cccc(CN(CC)CC2CCCN(CCc3cccc(OC)c3)C2)c1O (stereo not given) | inconclusive [inhibitor, partial curve, poor fit] | –
29 | CCOC(=O)c1sc(=S)n(-c2ccc(Cl)cc2)c1SC | inconclusive [inhibitor, full curve] | –
30 | COc1ccc(CCN(C)CC(=O)Nc2cc(C)nc3ccccc23)cc1OC | inconclusive [inhibitor, single point] | –
31 | Cc1cccc2cc(CN(Cc3cccs3)Cc3nnnn3Cc3ccccc3)c(=O)[nH]c12 | inconclusive [inhibitor, partial curve] | –
32 | Cc1cccc(C(=O)NC(=S)Nc2ccc(Cc3ccncc3)cc2)c1 | inconclusive [inhibitor, single point] | –
33 | CC1CCCN(CCCN2C(=O)C3C(C(=O)Nc4ccc(Cl)cc4)C4C=CC3(O4)C2C(=O)NC2CCCCC2)C1 (stereo not given) | inconclusive [inhibitor, single point] | –
34 | Cc1nc2sc(C(c3cccs3)N3CCC(C(N)=O)CC3)c(O)n2n1 (stereo not given) | inactive | –
35 | Cn1c(Cn2cnc([N+](=O)[O-])n2)nnc1SCC(=O)Nc1cccc(Cl)c1 | inconclusive [inhibitor, single point] | –
36 | COc1ccc(N(Cc2cc3ccccc3[nH]c2=O)C(=O)C2CCCO2)cc1 (stereo not given) | inconclusive [inhibitor, full curve] | –
37 | Cc1cc(CN(C)C(=O)c2ccc(OC3CCN(S(=O)(=O)N(C)C)CC3)cc2)n[nH]1 | inconclusive [inhibitor, partial curve] | –
38 | Cc1cc([N+](=O)[O-])nn1CCCC(=O)O | inactive | –
39 | N/C(=N\OC(=O)c1ccc([N+](=O)[O-])cc1)c1cccnc1 | inactive | –
40 | CN(C)NC(=O)c1ccsc1NC(=O)c1ccc(S(=O)(=O)N2CCCC2)cc1 | active: 11.7 µM | –
41 | CCOc1ccc(-n2cc(C(=O)N3CCC(C)CC3)c3cc(OC)c(OC)cc3c2=O)cc1 | active: 9.28 µM | –
42 | O=C1OCCN1/N=C/c1ccc([N+](=O)[O-])o1 | active: 13.5 µM | –
43 | Cc1cccc(C(=O)NCc2nnc3c4ccccc4c(-c4ccccc4)nn23)c1 | inactive | –
44 | Cc1nc(Nc2cccc(F)c2)c2oc3ccccc3c2n1 | – | inactive: -0.356% [at 0.00184 µM]
45 | O=[N+]([O-])c1cc(C=Nc2ccc3ccccc3c2)ccc1Br | inconclusive [inhibitor, full curve, poor fit] | –
46 | COc1ccc([C@]23Cc4cc(OC)c(OC)cc4C(O2)c2c(cc(C)n(Cc4ccccc4)c2=O)O3)cc1 | inconclusive [inhibitor, partial curve] | –
47 | Cc1ccc(C(=O)Nc2ccc3ccccc3c2)cc1 | inactive | –
48 | O=S(=O)(NCc1ccccn1)c1ccc2c(c1)OCCO2 | inactive | –

Row | Compound | Potency | activity change, negative = inhibition
49 | O=C(CN1CCOCC1)N1CCc2ccccc2C(c2ccccc2)C1 (stereo not given) | inactive | –
50 | CC(C)(C)NC(=O)C(c1ccc(Cl)cc1)N(Cc1ccco1)C(=O)CCl (stereo not given) | inconclusive [inhibitor, single point] | –
51 | Cc1ccc(S(=O)(=O)N(C)C)cc1NC(=O)C(C)NC(C)c1cccs1 (stereo not given) | inactive | –
52 | Cc1cccc(N(C(=O)c2csnn2)C(C(=O)NC(C)(C)C)c2cccs2)c1 (stereo not given) | inconclusive [inhibitor, single point] | –
53 | O=C1CSC(c2ccncc2)N1Cc1ccc(F)cc1 (stereo not given) | inconclusive [inhibitor, single point] | –
54 | O=C(COc1ccccc1)Nc1c2c(nn1-c1ccccc1)CS(=O)(=O)C2 | inconclusive [inhibitor, single point] | –
55 | Cc1ccc(N2C(=O)C3CC(c4ccccc4)=C4C5C=CC(C6C(=O)N(c7ccc(C)cc7)C(=O)C56)C4C3C2=O)cc1 (stereo not given) | active: 13.1 µM | –
56 | CCOC(=O)c1c(C)n(-c2ccc(C)cc2)c2ccc(OCC(O)CNCC3CCCO3)cc12 (stereo not given) | inconclusive [inhibitor, full curve, poor fit] | –
57 | O=C(c1ccc(OC2CCN(CCc3ccccc3)CC2)cc1)N1CCCC(CO)C1 (stereo not given) | inconclusive [inhibitor, single point] | –
58 | COc1ccc(-c2noc(CCC(=O)NCc3ccco3)n2)cc1 | inactive | –
59 | CC(=O)Nc1ccc(S(=O)(=O)Nc2ccc3c(c2)OCCO3)cc1 | inactive | –
60 | Cc1ccc2nc(SCC(=O)Nc3nonc3N)[nH]c2c1 | inconclusive [inhibitor, single point] | –
61 | C=CCNC(=O)c1onc(CSc2cccc(OC)c2)c1C(=O)O | inactive | –
62 | C=CCN1C=C2C(=O)C(C)(OC(=O)CCc3ccccc3)C(=O)C=C2C=C1c1ccc(C#N)cc1 (stereo not given) | active: 11.7 µM | –
63 | C=CCCc1ccc(C#N)c(SCc2c(C(=O)OCC)c3cc(OC(C)=O)c(Br)cc3n2C)n1 | active: 5.22 µM | –
64 | ClC(Br)=C(n1cnc2ccccc21)n1cnc2ccccc21 | active: 10.4 µM | –
65 | Cc1cc(O)c(C(C)C)cc1NC(=O)c1ccccc1Cl | inconclusive [inhibitor, partial curve, poor fit] | –
66 | CCC(=O)NCCn1c(C)cc2ccccc21 | inconclusive [inhibitor, partial curve, poor fit] | –
67 | O=C(c1cc2ccccc2[nH]1)N(Cc1cccnc1)CC1CCCN(C2CCCCC2)C1 (stereo not given) | active: 10.4 µM | –
68 | NC(=O)c1ccc([N+](=O)[O-])cc1Cl | inconclusive [inhibitor, single point] | –
69 | O=C(N1CCN(c2ccccn2)CC1)N1c2ccccc2Sc2ccccc21 | inconclusive [inhibitor, single point] | –
70 | CC(C)CCn1c(=O)c2ccccc2n2c(CN3C(=O)NC4(CCC(C)CC4)C3=O)nnc12 (stereo not given) | inconclusive [inhibitor, single point] | –
